Read counts are not given, so values of variants with three or more changes are uncertain.
B1: CPEB3 Ribozyme (parent)
chain: UAACAGGGGGCCACAGCAGAAGCGUUCACGUCGCAGCCCCUGUCAGAUUCUGGUGAAUCUGCGAAUUCUGCUGUAUAUCUC

Variants of: B1
Test: self-cleavage, relative activity (ratio to wild type); higher = more cleavage; in vitro, sequencing
Summary of the method: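 Libraries of CPEB3 self-cleaving ribozyme mutants came from rounds of error-prone PCR and carried barcodes, which DNA sequencing matched to variants. In vitro transcription used T7 RNA polymerase at 37°C for 5 hours, with a further 15 min in DNase I before EDTA stopped the reaction; the ribozymes cleaved during both steps. The RNA was reverse transcribed with template switching and sequenced on Illumina. Relative activity is the cleaved/total read fraction of a variant divided by that of the unmutated ribozyme, averaged over three batches with at least 5 reads.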

Row | Variant | self-cleavage
1 | A18G A35G U60C | 0.34
2 | A18G A35G U76A | 1.18
3 | A18G A35U A45G U51C U60C U72G U80C | 0.02
4 | A18G A35U A56G | 0.13
5 | A18G A35U A56G U66C U76G | 0.07
6 | A18G A35U A57G U74A | 0.52
7 | A18G A35U A77C | 0.13
8 | A18G A35U C40U | 0.08
9 | A18G A35U G42A U69C | 0.11
10 | A18G A35U G52A | 0.22
11 | A18G A35U U41A U48C | 0.06
12 | A18G A35U U43C | 0.21
13 | A18G A35U U49A A64G U78C | 0.07
14 | A18G A35U U51A A64U U76A | 0.13
15 | A18G A35U U72C | 0.11
16 | A18G A45G A56G U58C | 0.21
17 | A18G A45G A64G U74C | 0.61
18 | A18G A45G A64U U78C | 0.16
19 | A18G A45G A65G | 0.22
20 | A18G A45G U51A A64G | 0.37
21 | A18G A45G U78A | 0.79
22 | A18G A45U A56U | 0.14
23 | A18G A45U U51C | 0.16
24 | A18G A45U U54C | 0.09

Row | Variant | self-cleavage
25 | A18G A47G A56G G70C U78C | 0.05
26 | A18G A47G A56G U72G | 0.14
27 | A18G A47G A75U | 0.78
28 | A18G A47G C79U | 0.33
29 | A18G A47G U49C A57G A64G | 0.36
30 | A18G A47G U51C U72C | 0.53
31 | A18G A47G U54A A64G | 0.3
32 | A18G A47G U54G U80A | 0.64
33 | A18G A47G U69C U78A | 1.19
34 | A18G A47G U78C | 0.36
35 | A18G A47G U80C | 0.82
36 | A18G A47U A57G U69A | 0.2
37 | A18G A47U U51A U54C U60C U72A U80A | 0.07
38 | A18G A47U U54C A57G | 0.06
39 | A18G A47U U78C | 0.26
40 | A18G A56G A65G | 0.2
41 | A18G A56G U72G C79G | 0.37
42 | A18G A56G U74A | 0.87
43 | A18G A56G U74C | 0.89
44 | A18G A56G U76C A77U | 0.5
45 | A18G A56G U76G U78C | 0.46
46 | A18G A56G U78C | 0.38
47 | A18G A56G U80C | 0.6
48 | A18G A56U A65G | 0.16

Row | Variant | self-cleavage
49 | A18G A56U U60A A65G U67C U69C | 0.19
50 | A18G A56U U72C G73A A77G | 0.47
51 | A18G A57G A64G | 0.43
52 | A18G A57G U58A G63C G70U | 0.09
53 | A18G A57G U74C | 0.86
54 | A18G A57U U80A | 0.19
55 | A18G A64G A65G | 0.24
56 | A18G A64G U80C | 0.6
57 | A18G A64U U67C U69C | 0.2
58 | A18G A64U U74C | 0.49
59 | A18G A64U U80A | 0.31
60 | A18G A65C U67C | 0.2
61 | A18G A65G C68U | 0.08
62 | A18G A77G U80C | 0.87
63 | A18G C23A A35G A57G U60C | 0.08
64 | A18G C23A C27A U31C U51C | 0.14
65 | A18G C23A U31G A56G | 0.05
66 | A18G C23U A35G U43A A47G G70U | 0.15
67 | A18G C23U G46A U51A | 0.18
68 | A18G C23U U25C A57G | 0.1
69 | A18G C27A A45G U58C | 0.08
70 | A18G C27A C38A G42A C44U | 0.05
71 | A18G C27G A35U A64G | 0.1
72 | A18G C27G U49C U54A U58C C71G | 0.05

Row | Variant | self-cleavage
73 | A18G C27U G30A U54C A77U U80C | 0.27
74 | A18G C27U U31A U41C G61C U78C | 0.07
75 | A18G C27U U60C | 0.21
76 | A18G C29G U60C A75G U76C | 0.2
77 | A18G C29U C40U U48C U69G | 0.06
78 | A18G C29U G46U U69C | 0.13
79 | A18G C29U G70A A77G | 0.11
80 | A18G C29U U49C | 0.1
81 | A18G C29U U74C | 0.28
82 | A18G C32A A35G A45G U54A U74C | 0.16
83 | A18G C32A A35U U41C | 0.07
84 | A18G C32A A65G | 0.09
85 | A18G C32A A75G | 0.09
86 | A18G C32A G55A A75G | 0.36
87 | A18G C32A U41A U48C U66C | 0.09
88 | A18G C32U A45G U48C | 0.2
89 | A18G C32U U41A U48C U69C U72A | 0.13
90 | A18G C32U U48C U51C U66C U72A | 0.08
91 | A18G C32U U49C G52A U66A | 0.08
92 | A18G C32U U78C | 0.15
93 | A18G C38A U41A | 0.24
94 | A18G C38U U41A | 0.11
95 | A18G C39G A64G | 0.07
96 | A18G C39U A45G U60A A64G U78C | 0.15

Row | Variant | self-cleavage
97 | A18G C39U U49A A57U U80C | 0.1
98 | A18G C40A U58G C59U A64G A75U | 0.11
99 | A18G C40G A56G | 0.09
100 | A18G C40U A45U | 0.14
101 | A18G C40U A56C U60C A64U | 0.09
102 | A18G C40U U48A U78C | 0.07
103 | A18G C40U U51C U72G | 0.2
104 | A18G C44U A47G U67A U72C | 0.13
105 | A18G C44U A56G | 0.15
106 | A18G C44U A56G A57G C71A | 0.22
107 | A18G C50A A57G | 0.32
108 | A18G C59U U60C U74A | 0.22
109 | A18G C62U U72A | 0.16
110 | A18G C68U U74A | 0.14
111 | A18G C71G U72C U80A | 0.37
112 | A18G G19A U41C A56U | 0.1
113 | A18G G19C A20G U41A U51C U72G C79G | 0.07
114 | A18G G19C A56G A64C A65U U69A | 0.07
115 | A18G G19C U51C | 0.1
116 | A18G G19U C71U | 0.14
117 | A18G G19U U72A U80C | 0.14
118 | A18G G22A U25C C38U | 0.05
119 | A18G G22A U25C U51A | 0.11
120 | A18G G22A U25C U60C | 0.06

Row | Variant | self-cleavage
121 | A18G G22A U26C U60A A65G U66C U69C | 0.09
122 | A18G G22A U51A U66C | 0.08
123 | A18G G22U A45U U48C U67C | 0.16
124 | A18G G24A A56G U66C | 0.36
125 | A18G G24A A64G | 0.15
126 | A18G G24A A65U U80A | 0.19
127 | A18G G24A G46A A56U A64G U67C | 0.15
128 | A18G G24A U26A A57G | 0.23
129 | A18G G24A U43A U51A U67G | 0.34
130 | A18G G24C U51A | 0.21
131 | A18G G24U A35G U72C U80C | 0.13
132 | A18G G24U U72A U80C | 0.26
133 | A18G G30A A45C | 0.17
134 | A18G G30A C40G G42A U43C | 0.18
135 | A18G G30A C40U U43C A47G A56G U69C | 0.14
136 | A18G G30A U41A U49C | 0.34
137 | A18G G30A U51A U58C A64G U69A | 0.02
138 | A18G G30U A35C U41C U54G U72C | 0.09
139 | A18G G30U G53A U60C U66C | 0.17
140 | A18G G30U U69A | 0.14
141 | A18G G33A A47U U51A A56G U60A U72C | 0.18
142 | A18G G33A U43A U74A | 0.07
143 | A18G G33A U43G U54C | 0.15
144 | A18G G33C G36A U72G U80A | 0.15

Row | Variant | self-cleavage
145 | A18G G33C G36C | 0.31
146 | A18G G33U A35C A65G | 0.06
147 | A18G G33U A45U A64U C68U | 0.12
148 | A18G G33U U66C U80A | 0.07
149 | A18G G36A A64G U67A | 0.18
150 | A18G G36A U66C U67C | 0.17
151 | A18G G36U G61C A65G | 0.06
152 | A18G G42A A45G U48C | 0.22
153 | A18G G42C U49C A57G A65G | 0.1
154 | A18G G42U A57G A65G | 0.09
155 | A18G G42U A75U | 0.27
156 | A18G G46C A56G U66C | 0.21
157 | A18G G52C A56U A65G | 0.24
158 | A18G G52C U58A A64G U80C | 0.35
159 | A18G G53A G73U | 1.22
160 | A18G G55C U72C U78C | 0.28
161 | A18G U25A C40U U76C | 0.23
162 | A18G U25A U51A | 0.08
163 | A18G U25A U58A U69C U72A U76C | 0.04
164 | A18G U25C A28G | 0.46
165 | A18G U25C A28U U41A C81U | 0.08
166 | A18G U25C A35G | 0.39
167 | A18G U25C A35G U51A A57G U69C | 0.42
